# Laboratory results from the supplement of paper PMC8728848.
# The list shows a part of the results.
# B1: AMA (Arum maculatun) (protein)
# chain: MAKLLLLLLLPAIVGLAVPRSAAAVGSNYMLSGETLNTDGRLTNGELTLIMQVDCNLVLYHGGWQSNTANNGRDCKLTLTDFGELVIKSGTGSTVWSSGSKQSMKGNYAAVVHPEGRLVIYGPSVFKINPSGAGLNGLPLRNIPLTNNMLFSGQVLYGDGTLSARNHKLVMQGDCNMVLYGGKYGWQSNTHGNGKYCFAMLTHKGELVIRDDDFKSVWSSKSSSKQGDYVFILQDDSLAIIYGPAVFSTGSKKMISMVTN
# Experiments:
# Assay in all cases: glycan array binding signal (z-score within array); higher = stronger binding
# Settings in all cases: glycan notation: IUPAC condensed, linker removed
# [1] = biological target: Gal(b1-3)[Fuc(a1-4)]GlcNAc(b1-2)Man(a1-3)[Gal(b1-3)[Fuc(a1-4)]GlcNAc(b1-2)Man(a1-6)]Man(b1-4)GlcNAc(b1-4)[Fuc(a1-6)]GlcNAc
# Summary of the method: (§1)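 From the Consortium for Functional Glycomics database, 3228 arrays were curated, keeping only those whose protein sequence was available. Binding is given as a within-array Z-score averaged across arrays sharing a protein sequence and across linkers. Negative Z-scores can be read as non-binding.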
# [2] = biological target: Gal(b1-3)[Fuc(a1-4)]GlcNAc(b1-3)Gal(b1-3)[Fuc(a1-4)]GlcNAc
# Summary of the method: as §1
# [3] = biological target: Gal(b1-3)[Fuc(a1-4)]GlcNAc(b1-3)Gal(b1-4)GlcNAc
# Summary of the method: as §1
# [4] = biological target: Gal(b1-3)[Fuc(a1-4)]GlcNAc(b1-3)Gal(b1-4)[Fuc(a1-3)]GlcNAc
# Summary of the method: as §1
# [5] = biological target: Gal(b1-3)[Fuc(a1-4)]GlcNAc(b1-6)GalNAc
# Summary of the method: as §1
# [6] = biological target: Gal(b1-3)[GlcNAc(b1-6)]GalNAc
# Summary of the method: as §1
# [7] = biological target: Gal(b1-3)[Neu5Ac(a2-6)]GalNAc
# Summary of the method: as §1
# [8] = biological target: Gal(b1-3)[Neu5Ac(a2-6)]GlcNAc(b1-4)Gal(b1-4)Glc
# Summary of the method: as §1
# [9] = biological target: Gal(b1-3)[Neu5Ac(a2-6)]GlcNAc(b1-6)Gal(b1-4)Glc
# Summary of the method: as §1
# [10] = biological target: Gal(b1-3)[Neu5Ac(b2-6)]GalNAc
# Summary of the method: as §1
# [11] = biological target: Gal(b1-4)Gal
# Summary of the method: as §1
# [12] = biological target: Gal(b1-4)GalNAc(a1-3)[Fuc(a1-2)]Gal(b1-4)GlcNAc
# Summary of the method: as §1
# [13] = biological target: Gal(b1-4)GalNAc(b1-3)[Fuc(a1-2)]Gal(b1-4)GlcNAc
# Summary of the method: as §1
# [14] = biological target: Gal(b1-4)Glc
# Summary of the method: as §1
# [15] = biological target: Gal(b1-4)Glc6S
# Summary of the method: as §1
# [16] = biological target: Gal(b1-4)GlcNAc
# Summary of the method: as §1
# [17] = biological target: Gal(b1-4)GlcNAc(a1-6)Gal(b1-4)GlcNAc
# Summary of the method: as §1
# [18] = biological target: Gal(b1-4)GlcNAc(b1-2)Man
# Summary of the method: as §1
# [19] = biological target: Gal(b1-4)GlcNAc(b1-2)Man(a1-3)Man(b1-4)GlcNAc(b1-4)GlcNAc
# Summary of the method: as §1
# [20] = biological target: Gal(b1-4)GlcNAc(b1-2)Man(a1-3)[Gal(b1-4)GlcNAc(b1-2)Man(a1-6)]Man(b1-4)GlcNAc(b1-4)GlcNAc
# Summary of the method: as §1
# [21] = biological target: Gal(b1-4)GlcNAc(b1-2)Man(a1-3)[Gal(b1-4)GlcNAc(b1-2)Man(a1-6)]Man(b1-4)GlcNAc(b1-4)[Fuc(a1-6)]GlcNAc
# Summary of the method: as §1
# [22] = biological target: Gal(b1-4)GlcNAc(b1-2)Man(a1-3)[Gal(b1-4)GlcNAc(b1-2)Man(a1-6)][Gal(b1-4)GlcNAc(b1-4)]Man(b1-4)GlcNAc(b1-4)[Fuc(a1-6)]GlcNAc
# Summary of the method: as §1
# [23] = biological target: Gal(b1-4)GlcNAc(b1-2)Man(a1-3)[Gal(b1-4)GlcNAc(b1-2)Man(a1-6)][GlcNAc(b1-4)]Man(b1-4)GlcNAc(b1-4)[Fuc(a1-6)]GlcNAc
# Summary of the method: as §1
# [24] = biological target: Gal(b1-4)GlcNAc(b1-2)Man(a1-3)[GlcNAc(b1-2)Man(a1-6)]Man(b1-4)GlcNAc(b1-4)GlcNAc
# Summary of the method: as §1
# [25] = biological target: Gal(b1-4)GlcNAc(b1-2)Man(a1-3)[GlcNAc(b1-4)][Gal(b1-4)GlcNAc(b1-2)Man(a1-6)]Man(b1-4)GlcNAc(b1-4)GlcNAc
# Summary of the method: as §1
# [26] = biological target: Gal(b1-4)GlcNAc(b1-2)Man(a1-3)[Man(a1-6)]Man(b1-4)GlcNAc(b1-4)GlcNAc
# Summary of the method: as §1
# [27] = biological target: Gal(b1-4)GlcNAc(b1-2)Man(a1-6)Man(b1-4)GlcNAc(b1-4)GlcNAc
# Summary of the method: as §1
# [28] = biological target: Gal(b1-4)GlcNAc(b1-2)Man(a1-6)[GlcNAc(b1-2)Man(a1-3)]Man(b1-4)GlcNAc(b1-4)GlcNAc
# Summary of the method: as §1
# [29] = biological target: Gal(b1-4)GlcNAc(b1-2)Man(a1-6)[Man(a1-3)]Man(b1-4)GlcNAc(b1-4)GlcNAc
# Summary of the method: as §1
# [30] = biological target: Gal(b1-4)GlcNAc(b1-2)[Gal(b1-4)GlcNAc(b1-4)]Man(a1-3)[Gal(b1-4)GlcNAc(b1-2)Man(a1-6)]Man(b1-4)GlcNAc(b1-4)GlcNAc
# Summary of the method: as §1
# [31] = biological target: Gal(b1-4)GlcNAc(b1-2)[Gal(b1-4)GlcNAc(b1-4)]Man(a1-3)[Gal(b1-4)GlcNAc(b1-2)[Gal(b1-4)GlcNAc(b1-6)]Man(a1-6)]Man(b1-4)GlcNAc(b1-4)GlcNAc
# Summary of the method: as §1
# [32] = biological target: Gal(b1-4)GlcNAc(b1-2)[Gal(b1-4)GlcNAc(b1-4)]Man(a1-3)[GlcNAc(b1-4)][Gal(b1-4)GlcNAc(b1-2)Man(a1-6)]Man(b1-4)GlcNAc(b1-4)GlcNAc
# Summary of the method: as §1
# [33] = biological target: Gal(b1-4)GlcNAc(b1-2)[Gal(b1-4)GlcNAc(b1-4)]Man(a1-3)[GlcNAc(b1-4)][Gal(b1-4)GlcNAc(b1-2)[Gal(b1-4)GlcNAc(b1-6)]Man(a1-6)]Man(b1-4)GlcNAc(b1-4)GlcNAc
# Summary of the method: as §1
# [34] = biological target: Gal(b1-4)GlcNAc(b1-2)[Gal(b1-4)GlcNAc(b1-6)]Man(a1-6)[Gal(b1-4)GlcNAc(b1-2)Man(a1-3)]Man(b1-4)GlcNAc(b1-4)GlcNAc
# Summary of the method: as §1
# [35] = biological target: Gal(b1-4)GlcNAc(b1-2)[Gal(b1-4)GlcNAc(b1-6)]Man(a1-6)[Gal(b1-4)GlcNAc(b1-2)Man(a1-3)]Man(b1-4)GlcNAc(b1-4)[Fuc(a1-6)]GlcNAc
# Summary of the method: as §1
# [36] = biological target: Gal(b1-4)GlcNAc(b1-2)[Gal(b1-4)GlcNAc(b1-6)]Man(a1-6)[GlcNAc(b1-4)][Gal(b1-4)GlcNAc(b1-2)Man(a1-3)]Man(b1-4)GlcNAc(b1-4)GlcNAc
# Summary of the method: as §1
# [37] = biological target: Gal(b1-4)GlcNAc(b1-2)[Gal(b1-4)GlcNAc(b1-6)]Man(a1-6)[GlcNAc(b1-4)][Gal(b1-4)GlcNAc(b1-2)[Gal(b1-4)GlcNAc(b1-4)]Man(a1-3)]Man(b1-4)GlcNAc(b1-4)[Fuc(a1-6)]GlcNAc
# Summary of the method: as §1
# [38] = biological target: Gal(b1-4)GlcNAc(b1-3)Gal(b1-3)GalNAc
# Summary of the method: as §1
binder,measurement,setting,value
B1,glycan array binding signal (z-score),[1],-0.207
same,glycan array binding signal (z-score),[2],-0.202
same,glycan array binding signal (z-score),[3],-0.216
same,glycan array binding signal (z-score),[4],-0.203
same,glycan array binding signal (z-score),[5],-0.216
same,glycan array binding signal (z-score),[6],-0.208
same,glycan array binding signal (z-score),[7],-0.218
same,glycan array binding signal (z-score),[8],-0.218
same,glycan array binding signal (z-score),[9],-0.198
same,glycan array binding signal (z-score),[10],-0.22
same,glycan array binding signal (z-score),[11],-0.213
same,glycan array binding signal (z-score),[12],-0.216
same,glycan array binding signal (z-score),[13],-0.218
same,glycan array binding signal (z-score),[14],-0.217
same,glycan array binding signal (z-score),[15],-0.214
same,glycan array binding signal (z-score),[16],-0.213
same,glycan array binding signal (z-score),[17],-0.215
same,glycan array binding signal (z-score),[18],-0.205
same,glycan array binding signal (z-score),[19],-0.215
same,glycan array binding signal (z-score),[20],3.36
same,glycan array binding signal (z-score),[21],0.127
same,glycan array binding signal (z-score),[22],-0.215
same,glycan array binding signal (z-score),[23],-0.224
same,glycan array binding signal (z-score),[24],2.21
same,glycan array binding signal (z-score),[25],-0.218
same,glycan array binding signal (z-score),[26],0.479
same,glycan array binding signal (z-score),[27],-0.214
same,glycan array binding signal (z-score),[28],1.81
same,glycan array binding signal (z-score),[29],0.496
same,glycan array binding signal (z-score),[30],1.79
same,glycan array binding signal (z-score),[31],2.65
same,glycan array binding signal (z-score),[32],-0.221
same,glycan array binding signal (z-score),[33],-0.218
same,glycan array binding signal (z-score),[34],-0.226
same,glycan array binding signal (z-score),[35],-0.221
same,glycan array binding signal (z-score),[36],-0.215
same,glycan array binding signal (z-score),[37],-0.219
same,glycan array binding signal (z-score),[38],-0.219
